Several values for one entry are separate records, joined by “and”; a condition that tells them apart may be missing. Equal entries are not always repeated.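 Test compounds were applied to cells in 96-well plates for 48 hours at 5 doses. GI50 = concentration required for 50% inhibition of growth. Definition used: TGI = concentration required for complete inhibition of growth.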
Test system: NCI-H322M lung
Assay: NCI tumour cell line growth inhibition, 48 h

For Cc1ccc(C)c(NC2=C(Cl)C(=O)c3nc(C)ccc3C2=O)c1, the GI50 was 2.68 µM and the TGI was 10.5 µM.
C[C@@H]1C[C@H]2C(=O)OCC(NC(=O)[C@H](Cc3cc(F)cc(F)c3)NC(=O)Nc3ccc(Cl)cc3F)C(=O)N3CCC[C@H]3C(=O)N3CCCC[C@H]3C(=O)N[C@@H](C)C(=O)N2C1 (stereo partly drawn) was tested, and the GI50 was 3.22 µM and 2.34 µM and the TGI was 50 µM and > 100 µM.
For CCNC(=O)N1CCc2cc(OC)c(OCCc3ccc(OC)cc3)cc2C1c1ccc(OC)cc1C (stereo not drawn), the GI50 was 3.02 µM and the TGI was > 100 µM.
In the case of COc1ccc2c(c1)C=CC1(O2)Oc2ccc(OC)cc2C=C1C (stereo not drawn), the GI50 is reported as 2.15 µM and the TGI is reported as > 100 µM.

From PubChem BioAssay (NCI)
